Values joined by “and” are separate entries in the source; they are usually repeats but may differ in a detail not shown here. Identical values can stand only once. Screen size: about 340,000 compounds; about 2,100 (0.62%) were called active. This list was built around the results that the source calls inconclusive (neither active nor inactive); the mix of calls is not that of the screen.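 Rule for the calls: active = first-screen hits whose inhibition reached a set limit at any dose in the follow-up dose series; inconclusive = inhibition above the set first-screen limit but never retested; inactive = the rest.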
biological target: Rac GTPase-activating protein 1 (Homo sapiens) (UniProt Q9H0H5); assay: blockers of MgcRacGAP-driven Rac1 GTP hydrolysis – biochemical, ADP Hunter fluorescence, primary and confirmatory, confirmation (AID 624330); conditions: MgcRacGAP-stimulated Rac1 GTP hydrolysis, at 30 µM, active compounds read high, GST-tagged Rac1 F28L mutant substrate;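 note: fluorescence reports GDP produced by GAP-driven GTP hydrolysis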
Sequence of UniProt Q9H0H5 (Q9H0H5 whole entry, looked up): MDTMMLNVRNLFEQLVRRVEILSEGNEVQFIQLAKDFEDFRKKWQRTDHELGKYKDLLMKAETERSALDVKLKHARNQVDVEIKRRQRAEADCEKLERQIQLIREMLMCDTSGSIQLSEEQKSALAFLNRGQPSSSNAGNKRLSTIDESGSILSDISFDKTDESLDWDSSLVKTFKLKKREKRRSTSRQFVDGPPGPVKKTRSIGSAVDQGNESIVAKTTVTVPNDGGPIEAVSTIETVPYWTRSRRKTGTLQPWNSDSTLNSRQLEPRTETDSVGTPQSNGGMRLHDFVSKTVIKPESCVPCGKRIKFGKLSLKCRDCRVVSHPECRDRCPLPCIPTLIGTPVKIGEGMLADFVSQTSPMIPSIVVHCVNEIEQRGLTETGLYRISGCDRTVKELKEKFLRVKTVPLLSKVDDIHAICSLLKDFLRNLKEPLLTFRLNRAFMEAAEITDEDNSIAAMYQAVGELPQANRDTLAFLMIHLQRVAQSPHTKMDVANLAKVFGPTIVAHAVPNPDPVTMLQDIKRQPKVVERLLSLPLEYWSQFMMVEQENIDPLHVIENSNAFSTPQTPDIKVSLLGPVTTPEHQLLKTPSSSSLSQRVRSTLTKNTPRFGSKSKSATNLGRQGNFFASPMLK

inhibition, inconclusive:
COc1cc(/C=N/NC(=O)CCn2cnc(-c3ccccc3)c2-c2ccccc2)ccc1O 39.5%
O=C(O)c1cc(O)c2c(c1)[C@H]([C@H]1c3cc(C(=O)O)cc(O)c3C(=O)c3c(O[C@@H]4O[C@H](CO)[C@@H](O)[C@H](O)[C@H]4O)cccc31)c1cccc(OC3O[C@H](CO)[C@@H](O)[C@H](O)[C@H]3O)c1C2=O (some centres not stated) 101%
NC(N)=NC(N)=Nc1ccc(O)cc1 35.5%
COc1cc2nc(NCCCN3CCN(C)CC3)n3nc(-c4ccccc4)nc3c2cc1OC 33.7%
C=CCOc1ccc(CNc2ccc3[nH]c(=O)[nH]c3c2)cc1 42.7%
CCn1c(SCC(=O)c2ccc(O)c(O)c2)nnc1-c1ccccc1OC 36.7%
Cc1c(O)ccc(-c2[nH]ncc2-c2nc3ccccc3s2)c1O 34.8%
Cc1c(NC(=O)COC(=O)COc2ccc(Nc3ccccc3)cc2)c(=O)n(-c2ccccc2)n1C 35.9%
Oc1ccc(/C=N/N2CCN(c3ccccn3)CC2)cc1 62.7%
CC(=O)Nc1ccc(S(=O)(=O)/N=C2/NC(=O)/C(=C\c3ccco3)S2)cc1 32.9%
Cc1cc(O)c2c(c1O)C(=O)[C@]13C(=C2O)C(=O)[C@@H]2[C@@H](O)[C@H]1[C@@H]1[C@H](O)[C@H]3C(=O)C3=C(O)c4c(O)cc(C)c(O)c4C(=O)[C@]312 70.4%
CC(=O)Oc1c(/C=C(\C#N)C(N)=O)[nH]c2ccccc12 42.5%
C#CCOCCOCCOCCNc1nc(N2CCN(C(=O)[C@H](CCCCN)n3cc(CN)nn3)CC2)nc(N2CCN(C(=O)[C@H](CCCCN)n3cc([C@@H](N)[C@H](C)CC)nn3)CC2)n1 43.2%
Cc1cc(-c2n[nH]c(=S)n2/N=C/c2cccc([N+](=O)[O-])c2)n[nH]1 33.2%
COc1ccc(NC2CCCN(C(=O)c3cccs3)C2)cc1 (configuration not stated) 45.6%
Cc1cc(N)ccc1N=Nc1c(C)n(C)n(-c2ccccc2)c1=O 68%
C=CCOc1cccc(C(=O)N2CCCC(Nc3ccc4c(c3)OCCO4)C2)c1 (configuration not stated) 36%
CN(C)CCCN1c2ccccc2Sc2ccccc21 39.1%
O=C1CCCN1CCCNCC(O)c1ccccc1 (configuration not stated) 32.2%
COc1ccc(CN2CCN(S(=O)(=O)c3ccc(NC(C)=O)cc3)CC2)cc1 32.8%
CC(C)(C)NC(=O)NC(=O)CN1CCN(c2ccc(O)cc2)CC1 36.7%
O=C(CCl)c1cc2c3c(c1)CC(=O)N3CCC2 33.5%
O=C(c1ccccc1)N1CCN(c2ccc(NCc3ccc4c(c3)OCO4)cc2)CC1 120%
O=c1c2ccccc2nc(COc2ccccc2)n1/N=C/c1ccc(O)c(O)c1 40.6%
COc1cc(/C=N/NC(=O)c2cc(C3CC3)[nH]n2)ccc1O 66.5%
COc1ccc(N2CCN(Cc3nc4c(c(=O)n(C)c(=O)n4C)n3CCc3ccccc3)CC2)cc1 34.6%
C=CCn1cccc(C(=O)Nc2ccc(N(C)C)cc2)c1=O 56.3%
Cc1[nH]nc(Nc2ccc(O)cc2)c1[N+](=O)[O-] 110%
O=C1C=CC(O)(c2cc(=O)c3c(O)cc(O)cc3o2)C=C1 33.7%
Nc1ccc(OC(=O)Nc2ccc(O)cc2)cc1 91.7%
Cc1cc(=O)[nH]c2c(C)cc(S(=O)(=O)Nc3ccc(O)cc3)cc12 112%
COc1ccc(NC(=O)/C=C/C(=O)O)c(OC)c1 34.6%
CC(=O)Oc1oc(-c2ccccc2)nc1/C=N/c1ccccn1 32%
CN=c1scc(-c2ccccc2F)n1/N=C/c1ccc[nH]1 33.5%
COC(=O)c1cc2ccsc2n1CC(=O)Nc1ccc(N(C)C)cc1 33.8%
Cc1ccc(/C=N/Nc2nc3ccccc3s2)o1 35.6%
O=C(O)CCN1c2ccccc2Sc2ccccc21 68.7%
O=C1CC(N2CCN(c3ccc(O)cc3)CC2)C(=O)N1c1ccc2c(c1)OCO2 (configuration not stated) 52.3%
Cc1ccc(-c2nc3sc(C#N)c(N)n3c(=O)c2C#N)cc1 40%
C#CCOCCOCCOCCNc1nc(N2CCN(C(=O)CCCCCCCCCCNC(=O)[C@H](CO)n3cc(CCCSC)nn3)CC2)nc(N2CCN(C(=O)CCCCCCCCCCNC(=O)[C@H](CCCCN)n3cc(CCO)nn3)CC2)n1 47.7%
O=C(CN1CCCC1)Nc1ccc(Br)cc1 35.4%
Nc1cccc2c(O)cccc12 63.3%
Oc1ccc(/C=C/c2cc(O)cc(O)c2)cc1 89.6%
CCN(C(=O)COC(=O)/C=C/c1ccc(O)c(OC)c1)C1CCS(=O)(=O)C1 (configuration not stated) 64.1%
Cc1ccc(S(=O)(=O)n2cccc2/C=C/[N+](=O)[O-])cc1 32.2%
COc1cc(/C=C2\SC(=S)N(NC(=O)c3ccccc3O)C2=O)ccc1O 38.5%
CCCC1C(c2ccco2)NC(c2ccco2)CC1(C)O (configuration not stated) 41.8%
O=C(Nc1ccc(O)cc1)N1CCOCC1 76.5%
COc1ccc(NC(=O)CSc2nc(NS(=O)(=O)c3ccccc3)cc(=O)[nH]2)cc1 39.1%
Cc1ccc2c(c1)sc(C)[n+]2CCCS(=O)(=O)[O-] 36%
CCN(CC)c1ccc(NC(=O)c2cccc(C)c2OC)c(C)c1 31.9%
CN(C)c1ccc(NC(=O)CSc2nc(N)c(C(=O)Nc3ccc(N(C)C)cc3)s2)cc1 35.8%

inhibition, inactive:
COc1ccc(CNCc2ccncc2)c(OC)c1 5.34%
Cc1cc([N+](=O)[O-])ccc1N -7.8%
CN(C(=O)COC(=O)COc1ccc2ccccc2c1)c1ccccc1 5.73%
O=C(NCc1cccs1)c1nc2ncccn2n1 10.9%
CCC(CO)N=C1CC(C)(C)CC(=O)/C1=C(/O)CCCN1C(=O)c2ccccc2C1=O (configuration not stated) 0.34%
Cc1ccc(S(=O)(=O)NN2C(=O)c3ccccc3NC2(C)C)cc1 6.9%
CSc1ccc(CN2CCC(N3CCC(C(=O)NC4CC4)CC3)CC2)cc1 -3.51%
COc1ccc(CNC(=O)C(C)N(Cc2ccco2)C(=O)c2snc(C(N)=O)c2N)cc1 (configuration not stated) -8.32%
Cc1cc(C)c(C(=O)N2CCCC(Nc3ccc(F)cc3)C2)o1 (configuration not stated) 1.75%
CC1=CC(=O)C=C/C1=C(/c1ccc(O)cc1C)c1ccccc1S(=O)(=O)O 9.36%
CCn1cc(/C=C(\NC(=O)c2ccccc2)C(=O)N2CCOCC2)c2ccccc21 9.74%
O=C(NN=Cc1ccc(F)cc1)c1cccc(S(=O)(=O)N2CCCC2)c1 6.35%
c1ccc2c(c1)CCN(CCCNc1nc3ccccc3n3cnnc13)C2 5.26%
CCOC(=O)c1sc2nc(CSc3ccccc3)nc(N3CCC(C(N)=O)CC3)c2c1C -5.99%
CCOC(=O)C1CCN(C(=O)COC(=O)c2oc3ccccc3c2C)CC1 7.79%
C=CCc1cc(Cl)ccc1OCCOCCN(C)C 22%
COCc1cc(NCc2ccc(Cl)cc2)nc(C)n1 5.03%
Cc1cc(/C=C2/NC(=O)N(Cc3ccccc3F)C2=O)c(C)n1-c1ccccn1 4.33%
Cc1ccccc1OCCCCCn1ccnc1 2.87%
CCOC(=O)C1CCN(C(=O)c2cc(S(=O)(=O)N3CCCCC3)ccc2C)CC1 -9.49%
CC(=O)NC(Cc1ccccc1)C(C)=O (configuration not stated) 8.26%
O=C(COC(=O)COc1ccccc1)NCc1ccco1 5.42%
CCc1nnc(NC(=O)Cn2nnc(-c3ccccc3F)n2)s1 5.2%
CC1Cc2cc(S(=O)(=O)N3CCC(C(=O)N(C)Cc4ccccc4)CC3)ccc2N1C(=O)C1CC1 (configuration not stated) 8.31%
O=C(CN1CCCCCC1)Nc1cc([N+](=O)[O-])ccc1Cl 5.34%
Cc1ccc(S(=O)(=O)N2CCCCC2)cc1NC(=O)CSc1nnc(C2CC2)n1N 4.18%
COc1ccc(/C=C2/C(=O)N(c3ccccc3)N=C2C)cc1OC 17.9%
CN1CCN(CCCN2c3ccccc3Sc3ccc(C(F)(F)F)cc32)CC1 7.89% and 12.7% and 6.18%
CCOC(=O)c1nc(C)nc(Sc2n[nH]c(-c3ccccc3)n2)c1C 9.53%
CCN1CCN(C(C(=O)NC2CCCCC2)c2ccc(Cl)cc2)CC1 (configuration not stated) 2.93%
CCOC(=O)N/N=C\c1ccc(C)s1 3.68%
COCCNC(=O)CSc1ncnc2sc(-c3ccccc3)cc12 6.39%
COc1ccccc1/C=C(/C(=O)OCC(=O)Nc1ccccc1C)c1ccccc1 8.5%
COc1ccc(/C=C2/C(=O)ON=C2c2ccccc2)cc1OC 15.4%
COc1ccc(CCNC(=O)Cn2ccc3c(OC)cccc3c2=O)cc1OC 8.24%
